From PubChem BioAssay AID1468 (National Center for Advancing Translational Sciences (NCATS), 2008)
Among all 280,000 compounds or so, about 1,100 (0.39%) were called active. This list was built around the results that the source calls inconclusive (neither active nor inactive); the mix of calls is not that of the screen. Calls follow the shape of the dose curve; as a rule, active = well fitted inhibition curve with a large enough effect; inconclusive = small, poorly fitted or top-dose-only effect, or effect the other way; inactive = flat fitted curve, though single readings scatter. Potencies of inconclusive entries are left out as doubtful fits.
Also: nearly all actives have a fitted effect of over 55% in size.
Potency is read from the fitted curve at half-maximal effect; tags tell the direction and shape of the fitted curve.

Each molecule was assayed against Microtubule-associated protein tau (Homo sapiens) (UniProt P10636) (assay: qHTS for Inhibitors of Tau Fibril Formation, Fluorescence Polarization). Conditions: K18 P301L tau heparin fibrillization, Alexa594 FP, 6 h; series mostly up to 57.7 µM.
UniProt P10636, sequence (P10636 whole entry, looked up, the tested form may be a part): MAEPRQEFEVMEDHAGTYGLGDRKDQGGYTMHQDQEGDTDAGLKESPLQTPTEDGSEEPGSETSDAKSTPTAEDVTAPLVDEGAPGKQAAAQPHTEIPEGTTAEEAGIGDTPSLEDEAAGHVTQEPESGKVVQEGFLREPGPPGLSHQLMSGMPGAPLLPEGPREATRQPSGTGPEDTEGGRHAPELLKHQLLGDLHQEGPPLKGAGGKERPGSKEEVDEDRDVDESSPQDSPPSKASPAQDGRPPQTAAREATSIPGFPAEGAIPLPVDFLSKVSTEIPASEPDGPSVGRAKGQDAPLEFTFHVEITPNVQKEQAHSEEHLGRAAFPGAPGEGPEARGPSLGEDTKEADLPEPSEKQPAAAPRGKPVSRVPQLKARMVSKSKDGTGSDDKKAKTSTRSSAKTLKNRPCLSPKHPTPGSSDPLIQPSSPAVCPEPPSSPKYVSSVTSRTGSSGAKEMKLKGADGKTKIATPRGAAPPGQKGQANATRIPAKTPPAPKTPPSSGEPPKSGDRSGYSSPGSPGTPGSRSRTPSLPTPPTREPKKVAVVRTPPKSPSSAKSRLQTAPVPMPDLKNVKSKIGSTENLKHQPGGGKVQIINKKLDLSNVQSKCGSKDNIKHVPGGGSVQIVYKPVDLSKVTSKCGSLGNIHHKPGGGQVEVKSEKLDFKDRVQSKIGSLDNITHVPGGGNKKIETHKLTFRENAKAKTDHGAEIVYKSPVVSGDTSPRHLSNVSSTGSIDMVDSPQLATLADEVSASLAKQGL
In short: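 Human tau K18 […] P301L fragment, 15 uM unlabeled plus 0.24 uM Alexa 594-labeled tau (final), with compound and 20 uM heparin in 100 mM sodium acetate pH 7; 6 hr at 37 C, then Alexa 594 FP read.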
In the case of `O=C(Cc1cccs1)N/N=C/C=C/c1ccccc1`, the Potency was “inactive”.
With `COc1ccc(-c2cn[nH]c2-c2ccc(OCc3ccc([N+](=O)[O-])cc3)cc2O)cc1` the Potency was inconclusive [inhibitor, single point].
With `COc1ccc(C2=NC3(CCCCCC3)N(CC(=O)Nc3ccc(C)c(C)c3)C2=O)cc1` the Potency was inconclusive [inhibitor, single point].
For `CC(C)(C)NC(=O)Cc1ccc(S(=O)(=O)N2CCCC2)s1`, the Potency was “inactive”.
For `CC(=O)Nc1sc2c(c1C#N)CCCC2`, the Potency was “inactive”.
With `COc1ccc(N2C(=O)C(Cl)=C(N3CCCC(C)C3)C2=O)cc1` (centres undefined) the Potency was active: 28.2 µM.
With `Cc1cccc(N2CCN(C(=O)C34CC5CC(CC(C5)C3)C4)CC2)c1C` the Potency was “inactive”.
With `CCN1/C(=C\C(=S)Nc2ccccc2)Sc2ccccc21` the Potency was inconclusive [activator, partial curve, poor fit].
With `CCOC(=O)C1=NN(C(=O)c2ccc(OC)cc2)C(O)(c2ccc(Cl)cc2)C1` (centres undefined) the Potency was “inactive”.
In the case of `COc1ccc(Cl)cc1NC(=O)Cn1ncc2c3ccccc3n(Cc3ccccc3)c2c1=O`, the Potency was inconclusive [inhibitor, single point].
With `CN(c1ccc(OCC(=O)OCC(=O)Nc2ccccc2)cc1)S(=O)(=O)c1cccs1` the Potency was inconclusive [inhibitor, full curve, poor fit].
In the case of `COc1cc2c3nnc(-c4ccccc4)c-3cn(Cc3ccccc3F)c2cc1OC`, the Potency was “inactive”.
With `Oc1ccc(Br)cc1/C=N/n1cnc2ccccc21` the Potency was inconclusive [inhibitor, partial curve].
`O=C(c1ccccc1)c1c[nH]c(C(=O)NCc2cccnc2)c1` was tested, and the Potency was “inactive”.
With `Cc1cc2ccccn2c1C(=O)c1ccc(N/N=C/c2ccc(C(=O)O)cc2)c([N+](=O)[O-])c1` the Potency was “inactive”.
For `CC(C)=CCC1=C(O)c2ccccc2C(=O)C1=O`, the Potency was inconclusive [inhibitor, partial curve].
For `COc1cccc(Nc2sc(C(=O)c3ccc4c(c3)OCO4)c(N)c2S(=O)(=O)c2ccccc2)c1`, the Potency was inconclusive [inhibitor, single point].
For `O=C(Nc1ccc(N2CCOCC2)cc1Cl)C1CCN(C(=O)OCc2ccccc2)CC1`, the Potency was inconclusive [activator, partial curve].
With `C1=CC2c3ccccc3NC(c3ccncc3)C2C1` (centres undefined) the Potency was inconclusive [inhibitor, single point].
With `Cc1nc(C(=O)Nc2ccc(Cl)cc2)nn1-c1ccc([N+](=O)[O-])cc1` the Potency was inconclusive [activator, single point].
For `CC(=O)Nc1ccc(S(=O)(=O)NCC2CCC(C(=O)NCc3ccccc3Cl)CC2)cc1` (centres undefined), the Potency was inconclusive [inhibitor, single point].
With `CCOC(=O)c1cc(=O)n2nc(-c3ccc(C)cc3)nc2s1` the Potency was inconclusive [inhibitor, partial curve].
With `COc1ccc(Cl)cc1NC(=O)CSc1nc2c([nH]c3ccccc32)c(=O)n1-c1ccccc1` the Potency was inconclusive [inhibitor, single point].
`Cc1ccc(NC(=O)CN2c3ccccc3S(=O)(=O)c3ccccc32)cc1F` was tested, and the Potency was inconclusive [inhibitor, single point].
For `Cc1ccc(N/C=C2\C(=O)C3(C)CCC2C3(C)C)cc1C` (centres undefined), the Potency was inconclusive [inhibitor, single point].
In the case of `CCCN1C(=O)SC(CC(=O)Nc2ccccc2)C1=O` (centres undefined), the Potency was “inactive”.
In the case of `COc1ccc(-c2cc(C#N)nc(Oc3ccc(Cl)cc3)n2)cc1`, the Potency was inconclusive [inhibitor, full curve].
`O=C(NCc1ccc(F)cc1)C1CCN(S(=O)(=O)c2ccc3c(c2)CCCN3C(=O)C2CCC2)CC1` was tested, and the Potency was “inactive”.
`Cc1ccc(S(=O)(=O)c2cnc(SCC(=O)Nc3ccccc3C(F)(F)F)[nH]c2=O)cc1C` was tested, and the Potency was “inactive”.
In the case of `O=C(N/N=C/c1c[nH]c2ccccc12)c1ccncc1`, the Potency was “inactive”.
With `C/C(CCN1CCCc2nc(C)c(C)cc21)=N\OC[C@@H](O)COCc1ccco1` the Potency was inconclusive [inhibitor, single point].
For `CCn1cc(C(=O)NCCCN2CCN(C)CC2)c(=O)c2cc(S(=O)(=O)N3CCc4ccccc4C3)ccc21`, the Potency was “inactive”.
In the case of `COc1ccc(NC(=O)Nc2ccc3c(c2)N(C)C(=O)CS3)cc1Cl`, the Potency was inconclusive [activator, partial curve].
With `CCOc1ccccc1NC(=O)Cn1c(=O)n(Cc2nc(C)no2)c(=O)c2ccccc21` the Potency was “inactive”.
In the case of `O=C(NC1CS(=O)(=O)CC1NCc1ccco1)c1ccccc1` (centres undefined), the Potency was “inactive”.
For `O=C(/C=C/c1cccs1)c1ccc(NC(=O)c2cccc(Br)c2)cc1`, the Potency was inconclusive [inhibitor, full curve].
For `Cc1cc(N2CCOCC2)nc2ccc(NC(=S)N3CCN(Cc4ccccc4)CC3)cc12`, the Potency was inconclusive [activator, single point].
In the case of `CCCOc1cc(N(CC)CC)ccc1/C=C(/C#N)c1nc2ccc(C)cc2[nH]1`, the Potency was inconclusive [inhibitor, full curve, poor fit].
In the case of `C=C(C)CSc1nc2nc(C)c(Br)cc2[nH]1`, the Potency was “inactive”.
For `COc1ccc(NC(=O)Cn2c(=O)n(CCC(C)C)c(=O)c3cccnc32)cc1Cl`, the Potency was inconclusive [inhibitor, partial curve].
With `Cc1cc(C)cc(NC(=O)c2cc(C)nc3c2c(C)nn3-c2ccccc2)c1` the Potency was inconclusive [inhibitor, full curve, poor fit].
For `O=C(N/N=C/C=C/c1ccccc1)c1n[nH]c2c1CCC2`, the Potency was “inactive”.
In the case of `CC(c1ccccc1)N1CCC(CNC(=S)Nc2cccc(Cl)c2)C1` (centres undefined), the Potency was inconclusive [inhibitor, single point].
For `CCCOc1ccc(NC(=O)CC2C(=O)N(c3ccccc3)C(=O)N2Cc2ccc(F)cc2)cc1` (centres undefined), the Potency was inconclusive [inhibitor, partial curve].
In the case of `O=C(/C=C/Nc1ccc(Br)cc1F)c1ccco1`, the Potency was inconclusive [inhibitor, single point].
`Cc1noc2c1C(c1ccc(N(C)C)cc1)C1=C(CC(C)(C)CC1=O)N2` (centres undefined) was tested, and the Potency was inconclusive [inhibitor, single point].
`CN1CCN(C(=S)NC(=O)/C=C/c2cccs2)CC1` was tested, and the Potency was “inactive”.
`N#Cc1nc(-c2ccc(COc3ccccc3)o2)oc1NCc1cccnc1` was tested, and the Potency was inconclusive [activator, partial curve].
With `Cc1cccc(Cn2c(=O)n(CC3CCC(C(=O)NC(C)C)CC3)c(=O)c3sccc32)c1` (centres undefined) the Potency was “inactive”.
With `COc1cc(/C=C2\SC(c3ccc(C)cc3)=NC2=O)cc(OC)c1O` the Potency was inconclusive [inhibitor, partial curve].
For `Cc1ccc(-c2nnc(Nc3ccc(Br)cc3)c3ccccc23)cc1S(=O)(=O)NCC1CCCO1` (centres undefined), the Potency was inconclusive [inhibitor, partial curve].
`CCc1cc(-c2n[nH]c(C)c2-c2nc3ccccc3n2C)c(O)cc1O` was tested, and the Potency was “inactive”.
In the case of `Cc1ccc(/C=C2\SC(=S)N(CC3CCCO3)C2=O)o1` (centres undefined), the Potency was inconclusive [inhibitor, single point].
`Cc1cc2nc(/C(C#N)=C/c3ccncc3)[nH]c2cc1C` was tested, and the Potency was “inactive”.
With `COc1ccc(-c2cc(-c3ccccc3O)[nH]n2)cc1OC` the Potency was inconclusive [inhibitor, partial curve].
For `CCCC(=O)NC(NC(=S)Nc1ccc(N=Nc2ccccc2)cc1)C(Cl)(Cl)Cl` (centres undefined), the Potency was inconclusive [inhibitor, single point].
`COc1ccc(N2C(=O)C(F)(F)C2c2ccccc2F)cc1` (centres undefined) was tested, and the Potency was inconclusive [inhibitor, full curve, poor fit].
`CCCCNC(=S)N1CCN(c2nc3ccccc3s2)CC1` was tested, and the Potency was inconclusive [inhibitor, single point].
In the case of `O=C1COc2ccc(-c3cc(-c4ccc(Cl)cc4)c4c(n3)-c3ccccc3OC4)cc2N1`, the Potency was inconclusive [inhibitor, partial curve].
`CSc1nc(Nc2ccc(C)cc2C)cc(-c2ccccc2)n1` was tested, and the Potency was inconclusive [inhibitor, partial curve].
With `Cc1cccc(C)c1NC(=O)Cn1cc(C(=O)c2ccco2)c2ccccc21` the Potency was inconclusive [inhibitor, single point].
In the case of `N#C/C(=C(/O)COc1ccccc1)c1nc2ccccc2s1`, the Potency was “inactive”.
For `Cc1cc(NC(=S)NC(=O)c2ccccc2)ccc1-c1cc2ccccc2oc1=O`, the Potency was “inactive”.
In the case of `O=C(/C=C/c1ccccc1)/C=C/c1ccccc1`, the Potency was inconclusive [inhibitor, full curve].
In the case of `Nc1nonc1-n1nnc(C(=O)N/N=C/c2ccccc2)c1CSc1ccc(Cl)cc1`, the Potency was inconclusive [inhibitor, partial curve].
`CCN(CC)S(=O)(=O)c1cc(C(=O)OCC(=O)Nc2cccc(Br)c2)ccc1F` was tested, and the Potency was inconclusive [inhibitor, partial curve].
For `COc1ccc(C(=O)Nc2nnc(SCc3cc(=O)c4cccc(F)c4[nH]3)s2)cc1`, the Potency was “inactive”.
With `CC(C)(C)NC(=O)C(c1c[nH]c2ccccc12)N(C(=O)Cn1nnc(-c2ccc(F)cc2)n1)c1cccc(O)c1` (centres undefined) the Potency was inconclusive [inhibitor, single point].
In the case of `Cc1ccc(-c2[nH]ncc2/C=N/n2c(C)nc3ccccc3c2=O)cc1`, the Potency was inconclusive [inhibitor, single point].
